Changes are numbered by the printed parent chain. Results are given in words; binding and its absence hold for the method and conditions named. In cells and extracts the contact can be indirect. Some binding calls cover weakened binding; strength is not graded here. For some assays here: Tags and fused reporters may be left off the sequences shown.
B1: RhebL1 (protein, UniProt Q8TAI7 1-183)
chain: MPLVRYRKVVILGYRCVGKTSLAHQFVEGEFSEGYDPTVENTYSKIVTLGKDEFHLHLVDTAGQDEYSILPYSFIIGVHGYVLVYSVTSLHSFQVIESLYQKLHEGHGKTRVPVVLVGNKADLSPEREVQAVEGKKLAESWGATFMESSARENQLTQGIFTKVIQEIARVENSYGQERRCHLM
B2: wild type RhebL1 (HA-tagged, from pcDNA3.1-HA) (protein, UniProt Q8TAI7 1-183)
chain: B1 chain
B3: RhebL1Q64L (constitutively active, HA-tagged) (protein, UniProt Q8TAI7 1-183)
chain: B1 chain with Q64L
B4: RhebL1D60K (dominant negative, HA-tagged) (protein, UniProt Q8TAI7 1-183)
chain: B1 chain with D60K

Protein sequences, listed by entry. Tags and fused reporters are not part of them.
UniProt P31749: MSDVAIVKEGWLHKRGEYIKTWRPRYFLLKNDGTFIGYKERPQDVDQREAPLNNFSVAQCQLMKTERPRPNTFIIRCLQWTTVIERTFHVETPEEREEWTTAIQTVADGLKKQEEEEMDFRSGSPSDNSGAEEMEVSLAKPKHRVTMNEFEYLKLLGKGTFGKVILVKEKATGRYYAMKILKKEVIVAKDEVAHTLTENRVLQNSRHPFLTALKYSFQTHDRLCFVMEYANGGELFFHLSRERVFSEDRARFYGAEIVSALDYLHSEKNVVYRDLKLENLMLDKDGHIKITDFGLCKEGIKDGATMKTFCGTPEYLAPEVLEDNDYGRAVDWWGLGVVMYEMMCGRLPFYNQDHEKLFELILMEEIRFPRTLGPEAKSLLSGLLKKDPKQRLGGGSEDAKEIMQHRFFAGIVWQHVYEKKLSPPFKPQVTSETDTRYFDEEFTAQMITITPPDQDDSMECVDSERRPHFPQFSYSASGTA

Key:
[1] = biological target: AKT1 (human (endogenous in A549)) (UniProt P31749); assay: co-IP; extracts of A549 cells transfected with plasmids of wild type RhebL1, RhebL1D60K or RhebL1Q64L; IP with AKT1 antibody, immunoblot with HA and AKT1 antibodies
[2] = biological target: AKT1 (human (endogenous in A549)) (UniProt P31749); assay: co-IP; extracts of A549 cells with or without 5 uM SPC for 1 h; IP with AKT1 antibody or RhebL1 antibody, protein A/G magnetic beads, immunoblot with AKT1 and RhebL1 antibodies

Row | Binder | binding [1] | binding [2]
1 | B1 | binds | binds
2 | B2 | binds | 
3 | B3 | binds | 
4 | B4 | no binding | 

Source: paper PMC5400551
